According to PMC2991254:
These are yes or no findings as the source states them, for the method shown. Some results given as binding are weak or reduced against the parent protein; the word gives no strength.

The chains behind the UniProt entries cited, without tags or fusion partners. Where a name states a change or a piece, a line headed by the entry shows the natural chain unless it says otherwise.
UniProt O82794: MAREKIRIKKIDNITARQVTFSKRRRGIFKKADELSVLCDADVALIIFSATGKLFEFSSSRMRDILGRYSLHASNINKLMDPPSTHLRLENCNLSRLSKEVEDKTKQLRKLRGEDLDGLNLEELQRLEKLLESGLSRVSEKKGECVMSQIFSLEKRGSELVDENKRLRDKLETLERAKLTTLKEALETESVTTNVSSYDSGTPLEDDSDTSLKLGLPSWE
UniProt P29386: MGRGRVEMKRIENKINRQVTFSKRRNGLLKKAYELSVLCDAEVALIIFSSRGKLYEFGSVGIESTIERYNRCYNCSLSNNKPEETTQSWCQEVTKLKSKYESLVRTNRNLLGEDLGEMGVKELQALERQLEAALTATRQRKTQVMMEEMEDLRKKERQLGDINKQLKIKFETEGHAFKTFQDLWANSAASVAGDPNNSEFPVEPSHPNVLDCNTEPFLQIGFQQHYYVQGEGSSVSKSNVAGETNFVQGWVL
UniProt Q9FIS1: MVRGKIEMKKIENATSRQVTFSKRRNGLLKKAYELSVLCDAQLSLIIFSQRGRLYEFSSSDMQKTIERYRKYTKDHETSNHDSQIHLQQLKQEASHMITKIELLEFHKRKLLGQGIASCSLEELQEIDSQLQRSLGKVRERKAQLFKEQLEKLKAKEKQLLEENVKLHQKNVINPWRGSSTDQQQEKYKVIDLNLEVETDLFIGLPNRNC
UniProt Q9S7Q7: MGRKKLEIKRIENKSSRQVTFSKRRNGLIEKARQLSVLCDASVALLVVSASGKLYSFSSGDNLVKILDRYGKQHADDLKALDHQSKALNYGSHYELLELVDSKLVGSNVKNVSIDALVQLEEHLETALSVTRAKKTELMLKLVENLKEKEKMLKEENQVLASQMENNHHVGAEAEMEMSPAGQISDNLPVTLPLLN
UniProt Q9FPN7: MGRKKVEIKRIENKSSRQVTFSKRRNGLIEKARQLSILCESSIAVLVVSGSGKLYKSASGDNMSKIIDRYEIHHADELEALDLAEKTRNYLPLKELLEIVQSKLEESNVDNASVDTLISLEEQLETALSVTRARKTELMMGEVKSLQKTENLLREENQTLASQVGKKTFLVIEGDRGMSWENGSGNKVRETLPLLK
UniProt O82743: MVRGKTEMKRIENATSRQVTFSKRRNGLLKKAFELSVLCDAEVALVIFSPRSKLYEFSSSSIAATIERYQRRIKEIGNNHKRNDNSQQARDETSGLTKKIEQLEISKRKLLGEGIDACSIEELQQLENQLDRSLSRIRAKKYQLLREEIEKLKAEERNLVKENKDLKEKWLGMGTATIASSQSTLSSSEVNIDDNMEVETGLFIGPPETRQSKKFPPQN
UniProt Q9SZJ6: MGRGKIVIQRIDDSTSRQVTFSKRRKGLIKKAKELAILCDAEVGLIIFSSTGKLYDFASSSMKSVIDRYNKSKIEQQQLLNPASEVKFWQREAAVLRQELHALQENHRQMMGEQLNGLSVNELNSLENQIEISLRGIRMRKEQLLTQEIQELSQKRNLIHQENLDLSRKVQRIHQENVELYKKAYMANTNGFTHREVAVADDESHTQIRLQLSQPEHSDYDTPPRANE
UniProt Q9SI38: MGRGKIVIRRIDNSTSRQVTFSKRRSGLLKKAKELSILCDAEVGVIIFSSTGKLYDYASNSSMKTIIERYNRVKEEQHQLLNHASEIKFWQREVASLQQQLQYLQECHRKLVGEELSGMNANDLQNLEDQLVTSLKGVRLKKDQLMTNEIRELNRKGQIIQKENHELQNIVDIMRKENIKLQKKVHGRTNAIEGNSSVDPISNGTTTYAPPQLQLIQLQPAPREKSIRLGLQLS
UniProt P29381: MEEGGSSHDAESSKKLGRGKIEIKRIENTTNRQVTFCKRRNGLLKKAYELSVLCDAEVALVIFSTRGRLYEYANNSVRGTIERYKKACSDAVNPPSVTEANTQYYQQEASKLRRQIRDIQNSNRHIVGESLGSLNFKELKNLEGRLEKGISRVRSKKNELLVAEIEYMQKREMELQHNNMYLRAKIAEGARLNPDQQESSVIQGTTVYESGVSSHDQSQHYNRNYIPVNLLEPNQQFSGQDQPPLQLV
UniProt Q39081: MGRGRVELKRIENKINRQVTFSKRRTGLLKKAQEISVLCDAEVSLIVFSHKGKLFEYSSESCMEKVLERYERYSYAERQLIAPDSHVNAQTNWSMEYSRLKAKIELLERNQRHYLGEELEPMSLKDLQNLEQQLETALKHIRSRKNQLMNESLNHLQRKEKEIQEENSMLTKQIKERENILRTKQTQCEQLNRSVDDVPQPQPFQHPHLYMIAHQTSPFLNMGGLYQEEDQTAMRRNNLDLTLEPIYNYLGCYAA
UniProt O64645: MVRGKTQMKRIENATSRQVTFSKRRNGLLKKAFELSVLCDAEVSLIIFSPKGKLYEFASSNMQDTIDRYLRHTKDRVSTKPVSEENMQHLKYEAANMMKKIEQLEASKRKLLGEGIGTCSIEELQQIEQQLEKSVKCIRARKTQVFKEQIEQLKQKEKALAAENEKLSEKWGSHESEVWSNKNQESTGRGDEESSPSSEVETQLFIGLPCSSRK
UniProt P35631: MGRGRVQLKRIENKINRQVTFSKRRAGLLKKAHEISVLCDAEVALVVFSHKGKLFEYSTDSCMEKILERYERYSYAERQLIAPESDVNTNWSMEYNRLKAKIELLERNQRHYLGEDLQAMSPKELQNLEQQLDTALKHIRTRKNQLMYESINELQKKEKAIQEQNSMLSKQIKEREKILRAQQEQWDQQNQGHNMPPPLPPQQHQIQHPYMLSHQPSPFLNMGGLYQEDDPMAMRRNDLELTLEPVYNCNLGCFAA
UniProt P17839: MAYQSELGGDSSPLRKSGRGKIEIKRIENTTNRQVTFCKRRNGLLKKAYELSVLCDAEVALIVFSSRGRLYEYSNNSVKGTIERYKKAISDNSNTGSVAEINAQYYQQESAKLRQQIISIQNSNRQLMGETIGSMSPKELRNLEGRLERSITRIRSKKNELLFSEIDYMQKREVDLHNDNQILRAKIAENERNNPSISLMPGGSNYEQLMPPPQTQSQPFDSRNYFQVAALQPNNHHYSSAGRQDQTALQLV
UniProt Q38838: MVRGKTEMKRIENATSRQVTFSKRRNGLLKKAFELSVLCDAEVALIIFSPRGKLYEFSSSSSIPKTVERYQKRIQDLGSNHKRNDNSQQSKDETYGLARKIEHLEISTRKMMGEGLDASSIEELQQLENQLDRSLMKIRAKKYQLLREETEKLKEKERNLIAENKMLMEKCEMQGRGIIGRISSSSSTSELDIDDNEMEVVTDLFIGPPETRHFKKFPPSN

Assays:
Test in all cases: two-hybrid; matrix-based yeast two-hybrid, GAL4-AD and GAL4-BD fusions (pDEST22, pDEST32), in duplicate, at least two reporter genes; medium lacking Leu, Trp and His with 1 mM 3-amino-1,2,4-triazole, growth scored after 4 days at 20°C
[1] = target: T1, AGL71 (Arabidopsis thaliana) (UniProt Q9LT93)
T1 sequence: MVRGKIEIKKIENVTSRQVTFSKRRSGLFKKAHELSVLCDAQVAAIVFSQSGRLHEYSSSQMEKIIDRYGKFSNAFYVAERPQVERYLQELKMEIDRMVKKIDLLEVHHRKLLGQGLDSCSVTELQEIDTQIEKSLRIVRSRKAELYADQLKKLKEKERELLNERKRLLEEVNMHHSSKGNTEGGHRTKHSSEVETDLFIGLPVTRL

[2] = target: AGAMOUS-LIKE24 (Arabidopsis thaliana) (UniProt O82794)
[3] = target: AGL6 (Arabidopsis thaliana) (UniProt P29386)
[4] = target: T2, AGL13 (Arabidopsis thaliana) (UniProt Q38837)
T2 sequence: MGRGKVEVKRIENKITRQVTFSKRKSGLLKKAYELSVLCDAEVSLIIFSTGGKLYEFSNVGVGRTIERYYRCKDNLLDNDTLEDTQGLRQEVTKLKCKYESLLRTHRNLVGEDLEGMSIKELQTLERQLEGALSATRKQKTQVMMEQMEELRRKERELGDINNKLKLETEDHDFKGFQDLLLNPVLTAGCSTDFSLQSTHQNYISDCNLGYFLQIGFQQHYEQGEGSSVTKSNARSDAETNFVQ

[5] = target: AGL42 (Arabidopsis thaliana) (UniProt Q9FIS1)
[6] = target: FLOWERING LOCUS C (Arabidopsis thaliana) (UniProt Q9S7Q7)
[7] = target: MADS … FLOWERING 2 (Arabidopsis thaliana) (UniProt Q9FPN7)
[8] = target: AGL19 (Arabidopsis thaliana) (UniProt O82743)
[9] = target: AGL21 (Arabidopsis thaliana) (UniProt Q9SZJ6)
[10] = target: ANR1 (Arabidopsis thaliana) (UniProt Q9SI38)
[11] = target: SHORT … PHASE (SVP1) (Arabidopsis thaliana) (UniProt Q9FVC1)
[12] = target: …OOF1 (Arabidopsis thaliana) (UniProt P29381)

| Substance | binding [1] | binding [2] | binding [3] | binding [4] | binding [5] | binding [6] | binding [7] | binding [8] | binding [9] | binding [10] | binding [11] | binding [12] |
| --- | --- | --- | --- | --- | --- | --- | --- | --- | --- | --- | --- | --- |
| CAULIFLOWER (from UniProt Q39081 1-255) | no binding | no binding | no binding | no binding | no binding | no binding | no binding | no binding | no binding | no binding | no binding | no binding |
| SUPPRESSOR OF OVEREXPRESSION OF CO 1 (from UniProt O64645 1-214) | binds | binds |  | binds | binds | no binding | no binding | binds | binds | binds | binds | binds |
| AP1 I66V (from UniProt P35631 1-256) | no binding | no binding | no binding | no binding | no binding | no binding | no binding | no binding | no binding | no binding | no binding | no binding |
| SVP1 EFCSSS56-61D (from UniProt Q9FVC1 1-240) | no binding | no binding | no binding | no binding | no binding | no binding | no binding | no binding | binds | no binding | no binding | no binding |
| SVP1 SS227-228MF (from UniProt Q9FVC1 1-240) | no binding | no binding | no binding | binds | binds | binds | binds | no binding | binds | binds | no binding | binds |
| SVP1 S61R (from UniProt Q9FVC1 1-240) | no binding | no binding | no binding | no binding | no binding | no binding | no binding | no binding | binds | no binding | no binding | no binding |
| AG Q126H (from UniProt P17839 1-252) | no binding | no binding | no binding | no binding | no binding | no binding | no binding | no binding | no binding | no binding | no binding | no binding |
| AP1 Y148N (from UniProt P35631 1-256) | no binding | binds | no binding | binds | no binding | no binding | no binding | no binding | no binding | no binding | binds | no binding |
| AGAMOUS LIKE14 (from UniProt Q38838 1-221) | no binding | binds | no binding | no binding | no binding | no binding | no binding | no binding | no binding | no binding |  | no binding |
| AGAMOUS (from UniProt P17839 1-252) | no binding |  | no binding | binds | no binding | no binding | no binding | no binding | binds | no binding | binds | no binding |
| APETALA1 (from UniProt P35631 1-256) | no binding | binds | binds | no binding | no binding | no binding | no binding | no binding | binds | no binding | binds | no binding |
| SVP1 C58S/S61R (from UniProt Q9FVC1 1-240) | no binding | no binding | no binding | no binding | no binding | no binding | no binding | binds | binds | no binding | no binding | no binding |
| CAL V66I/N150Y (from UniProt Q39081 1-255) | no binding | no binding | no binding | no binding | no binding | no binding | no binding | no binding | no binding | no binding | no binding | no binding |
| SHORT … PHASE (SVP1) (from UniProt Q9FVC1 1-240) | no binding | no binding | binds | no binding | binds | binds |  | binds | binds | binds |  | binds |
